Measurements published in the antibiotic and cytotoxicity screens of Wong et al. (2023).
The other results are listed elsewhere or left out.

Key:
HSkMC = human skeletal muscle cells; test: cytotoxicity call (relative viability < 0.9); settings: 10 µM
HepG2 = test: cytotoxicity call (relative viability < 0.9); settings: 10 µM
S. aureus RN4220 = test: growth inhibition call (relative growth <= 0.2); settings: 50 µM

Row | SMILES | cytotoxicity call (HSkMC) | cytotoxicity call (HepG2) | growth inhibition call (S. aureus RN4220)
1 | CC(=O)O[C@H]1CCS(=O)(=O)C1 | inactive | inactive | inactive
2 | C[C@@H]1CN([C@H](C)CO)C(=O)Cc2cc(NC(=O)Nc3ccc(F)cc3)ccc2O[C@@H]1CN(C)Cc1ccc(Oc2ccccc2)cc1 | active | active | inactive
3 | C[C@@H]1CN([C@@H](C)CO)C(=O)CCCn2nncc2CO[C@@H]1CN(C)S(=O)(=O)c1ccc(Oc2ccccc2)nc1 | inactive | inactive | inactive
4 | C[C@H]1CCCCO[C@H](CN(C)S(=O)(=O)c2cccs2)[C@@H](C)CN([C@@H](C)CO)C(=O)c2cc(NC(=O)C3CCCCC3)ccc2O1 | inactive | inactive | inactive
5 | OC[C@@]1(O)CO[C@@H](OC[C@H]2O[C@@H](OCCc3ccc(O)cc3)[C@H](O)[C@@H](O)[C@@H]2O)[C@@H]1O | inactive | inactive | inactive
6 | C[C@@H]1CN([C@H](C)CO)C(=O)CCCn2cc(nn2)CO[C@H]1CN(C)C(=O)c1ccc(N2CCN(C)CC2)cc1 | inactive | inactive | inactive
7 | C=CCCCCCCCCCCCC(O)CC(O)CO (stereo not given) | inactive | inactive | inactive
8 | Cc1ccc(S(=O)(=O)Nc2ccc3c(c2)C(=O)N([C@@H](C)CO)C[C@H](C)[C@@H](CN(C)S(=O)(=O)c2ccc(Cl)cc2)OCCCC[C@H](C)O3)cc1 | inactive | active | inactive
9 | COc1ccc(CN(C)C[C@H]2OCCCC[C@H](C)Oc3ccc(NC(=O)Nc4ccc(OC)cc4)cc3C(=O)N([C@H](C)CO)C[C@H]2C)cc1 | inactive | active | inactive
10 | COc1cc(NC(=O)c2cccs2)c(C(=O)OCC(=O)c2cc(C)n(-c3ccccc3)c2C)cc1OC | inactive | inactive | inactive
